The chains are these.
B1: TPR 5TU (parent)
chain: GGAUCUUCUCGAUCUAACAAAAAAGACAAAUCUGCCACAAAGCUUGAGAGCAUCUUCGGAUGCAGAGGCGGCAGCCUUCGGUGGCGCGAUAGCGCCAACGUUCUCAACUAUGACACGCAAAACGCGUGCUCCGUUGAAUGGAGUUUAUCAUG

This sample is rich in variants without activity. Some results are limits rather than exact numbers.

Variants of B1 are the subject of the data set. Description: polymerase ribozyme fitness, log enrichment relative to wild type (log ratio); higher = more active; in vitro selection for triplet polymerase activity. The method, boiled down:
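For each subunit of a heterodimeric triplet polymerase ribozyme, a mutant library was built by PCR and transcribed, then taken through a single in vitro selection round in triplicate. Selection involved annealing to a biotinylated primer, the partner subunit and triplets, incubation frozen at −7 °C, gel excision of extended constructs, capture on streptavidin beads and RT-PCR. Genotypes were retained after Illumina sequencing of inputs and outputs only with ≥10 input reads and ≥1 read in each output. Fitness is defined as the logarithm of a genotype's enrichment relative to wild-type enrichment, using inverse-variance-weighted averages across replicates, with the logarithm taken to base 2.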
As for GGCUCUUAUCGAUCUAACAAAAAAGACAAAUCUGCCACAAAGCUUGAGAGUAUCUUCGGAUGCAGAAGCGGCAGCCUUCGGUUGCGCGAUAGCACCACGGUUCUCAACCAUGACACGCAUAACGCGUGCUCCGUUGAAUGGAGUGUAUCAUG, the “polymerase ribozyme fitness (log ratio)” value was at most -4.2.
For GGCUCUUCUCGAUCUUACAAAAAAGACAAAUCUGCCACAAAGCUUGAGAGCAUCUUCGGAUGCAGAGGCGGCAGCCUUCGGUGGCGCGAUAGGGCCAACGUUCUCAACUAUGACACGUAAAACGCGUGCGCCGUUGAAUGGAGUUUAUCAUG, the “polymerase ribozyme fitness (log ratio)” value was at most -4.2.
The same measure for GGCUCUUCUCGAUCUAACAAAAAAGACAAAUCUGUCACAAAGCUUGAGAGCAUCUUCGGAUGCAGAGGCGGCAGACUUCGGUGGCGCGAUAGCGCCAACGUUCUCAACUAUGACACGCAAAACGCGUGGUCCGUUGAAUGGAGUUUAUCAUG: at most -4.2; for GGCUCUUCUCGAUUUGACAAAAAAGACAAAUCUGCCACAAAGCUUGAGAGCAUCUUCGAAUGCAGAGGCGGCAGCCUUCGGUGGCGAGAUAGCGCCAACGUUCUCAACUAUGACACGCAAAACGCGUGCUCCGUUGAAUGGAGUUUAUCAUG: at most -4.2; for GGCUUUUCUCGAUCUAACAAAAAAGACAAAUCUGCCACAAAGUUUGAGAGCAUCUUCGGAUGCAGAGGCCGCAGCCUUCGGUGACGCGAUAGCGCCAACGUUCUCUACUAUGCCACGCAAAACGCGUGCUCCGUUGAAUGGAGUUUAUCAUG: at most -4.2.
The same measure for GGCGCUUCUCGAUCUAACAACAAAGACAAAUCUGCCAGAACGCUUGAGAGCAUCUUCGGAUGCAGAGACGGCAGCCUUCGAUGGUGCGAUAGCGUCAACGUUCUCAACUAUGACAGGCAAAACGCGUGCUCCGUUGAAUGGAGUUUAUCAUG: at most -4.2; for GGCUCUUCUCGAUCUAACAAAAAAGACAAAUCUGCGACAAAGCUUGAGAGCAUCUUCGGCUGCAGAGGCGGCAGCCUUCGGUUGCGCGAUAGCGCCAACGUUCUCAACUAUGACACGGAAAACGCGUGCUCCGUUGAAUGGAGUUUAUCAUG: at most -4.2; for GGCUCUUCUCGAUCUAACAAAAAAGACAAAUCUGCCACAAAGCUUGAGAGCUUCUUCGACUGCAGAGCCGGCAGCCUUCGGUGACGCGAUAGCGCGAACGUUCUCAACUAUGACACGCAAAACGCGUGCUCCAUUGAAUGGAGUUUAUCAUG: at most -4.2.
The same measure for GGCUCUUCUCGAUCUAACUAAAAAGACAAAUCUGCCACAACGCUUGAGAGCAUCUUCGGAUGCAGAGGCGGCAACCUUCGGUGGCGCGAUACCGCCAACGUUCUCAACUAUGACACGCAAAACGCGUGCUCCGUUGAAUGGAGUUUAUCAUU: at most -4.2; for GGCUCUUCUCGAUCUAAGAAAAAAGACAAAUCUGCCACAAAGCUUGAGAGCAUUUUGGGGUGCAGAGGCGGCAGCCUUCGGUGGCGGGAUAGCGCCAACGUUCUCCACUAUGACACGCAAAACGCGUGCUCCGUUGAAUGGCGUUUAUCAUG: at most -4.2; for GGCGCUUCUCGAUCUAACAAAAAAGACAAAUCUGCCACAAAGCUUGAGUGCAUCUUCGGACGCAGAGGCAGCAGCCUUCGGUGGCGCGAUAUCGCCAACGUUCUCAACUAUGACACGCAAAACGCGUGCUCCGUUGAAUGGAGUUUAUCAUG: at most -4.2.
Take GGCUCUUGUCCAUCUAACAAAAAAGACAAAUCUGCCACAAAGCUUGAGAGCAUUUUCGGAUGCAGAGGCGGCAGCCUUCGGUGGCGCGAUAGCGCUAACGUUCUCAACUAUGACACGCAAAACGCGCGCUCCGUUGAAUGGAGUUUAUCAUG: the “polymerase ribozyme fitness (log ratio)” value was at most -4.2.
Regarding GGCUAUUCUUAAUCUAACAAAAAAGACAAAUCUGCCACAAAGCUUGAGAGCAUCUUCGGAUCCAGAGGCGGCAGCCUUCGGUGGCGCGAUAGUGCCUACGUUCUCAACUAUGACACGCAAAACGCGUGCUCCGUUGAAUGGAGUUUAUCAUG, the “polymerase ribozyme fitness (log ratio)” value is at most -4.2.
For the variant GGCUCUUAUCGAUCUAACAAUAAAGACAAAUCUGCCACAAAGCUUGAGAGCCUCUUCCGAUGCAGAGGCGGCAGCCUUCGGGGGCGCGAUAGAGGCAACGUUCUCAUCUAUGACACGCAAAACGCGUGCGCCGUUGAAGGGAGUUUAUCAUG, the “polymerase ribozyme fitness (log ratio)” value is at most -4.2.
The result for GGCUCUUCUCGAUCUAAGAAAAAAGACAAAUCUGCCACAAAGUUUGAGAGCAUCUUCGGAUGCAGAGGCGGCAGCCUUCGGUGGCGCGAUAGCGCCAACGUUCUCAACUAUGACACGCAAAACGCGUGCUCCGUUGAAUGGAGUUUAUCAUG reads at most -4.2.
For the variant GGCUCUUCUCGAUCUAACAAAAAAGACAAAUCUGCCACAAAGCUUGAGAGCAUCUUCGGAUGCAGAGGCGGCAGCGUUCGGUGGCGCGAUAGCGCCAACGUUCUCAACUAUGACACGCAAAACGCGUGCUCCGUUGAAUGGAGUUUAUCAUG, the “polymerase ribozyme fitness (log ratio)” value is at most -4.2.
The result for GGCUCUUCUCGAUCUGACAAAAAAGACAAAUCUGCCACAAAGCUUGAGAGCAUCUUCGGAUGCAGAGGCGGCAGCCUUCGGUGGCGCGAUAGCGCCAAGGUGCUCUACUAUGACACGCAAAACGCGUGCUCCGUUGAAUGGAGUUUAUCAUG reads at most -4.2; that for GGCUCUUCUCGAUCUAACAAAAAAGACAAAUCUGCCACAAAGCUUGAGAGCAUCUUUGGAUGCAGAGGCGGCAGCCUUCGGGGACGCGAAAGGGCCAACGUUCUCAACUAUGACACGCAAAACGCGUGCUCCGUUGAAUGGAGUUUAUUAUG, at most -4.2; that for GGCUCUUCUCGAUCUAACUAAAAAGACAAAUCUGCCACAAAGCUUGAGAGCCUCUUAGGAUGCAGAGGCGGCAGCGUUCGGUGGCGAGAUAGCGCCAACGUUCUCAACUAUGACACGAAAAACGUGUGCUCCGUUGAAUGGAGUUUAUCAUG, at most -4.2.
On to GGCUCUUCUCGAUCUAACAAAAAGGACAAAUCUGCCACAAAGCUUGAGAGCAUCUUCGGAUGCAGAGGCGGCGGCCUUCGGUGGGGCGAUAGCGCCAACGUUCUCAACUAUGACACGCAAAACGCGUGCUCCGUUGAAUGGAGUUUAUCAUG, for which the “polymerase ribozyme fitness (log ratio)” value is at most -4.2.
Take GGCUCUUCUCCAUCUAACAAAAAAGACAAAUCUGCCACAAAGCUUGAUAGCCUCUUCGGAUGCAGAGGAGGCAGCCUUCGGUGGUGCGAUAGCGCCAACGUUCUCAACUAUGACACGCAAAACGCGUGCUCCGGUGAAUGGAGUUUAUCGUG: the “polymerase ribozyme fitness (log ratio)” value was at most -4.2.
Regarding GGCUCUUCUCGAUCUGACAAAAAAGACAUAUCUGCCACAAUGCUUGAGAGCAUCUUCGGAUGCAGAGGCGGCAGGCUUCGGUGGCACGAUGCCGCCAACGUUCUCAACUAUGCCACGCAAAACGCGUGAUCCGUUGCAUGGAGUUUAUGAUG, the “polymerase ribozyme fitness (log ratio)” value was at most -4.2.
For the variant GGCUCUUCUCGAUCUAACAAAGAAGACGAAUCUGCCACAGAGCUUGAGAGCAUCUUCGGAUGCAGAGGCGGCAGCCUUCGGUGGCGCGCUGGCGCCAACGUUCUCAACUAUGACACGCAAAACGCGUGCUCCGUUGAAUGGUGUUUAUUAUG, the “polymerase ribozyme fitness (log ratio)” value was at most -4.2.
The result for GGCUCUUCUCGAUCUAUCAAAAAAGACAAAUCUGCCACAAAGCUUGAGAGCAUUUUCGGAUGCAGAGGCGGCAUCCUUCGGUGGCGCGAUAGCGCCAACGUUCUCAACUAUGACACGCAAAACGCGUGCUUCGUUGAAUGGAGUUUAUCAUG reads at most -4.2; that for GGCUCUUCUGGAUCUAACAAAAAAGACAUAUCGGCCAUAAAGCUUGAGAGCAUCUUCGGAUGUAGAGGCGGCAGCCUUCGGUGGCGCGAUAGCGCCAACGUUCUCAACUAUGACACGCAAAACGCGUGCUCCGUUGAAUGGAGUUUAUCAUG, at most -4.2.
The same measure for GGCUCUUCUCGAUCUAACAAAAAAGACAAAUCUGCCACAAAGCUUGAGAGCAUGUUCGGAUGCAGAGGCGGCAGCCGUCGGUGGCGCGAUUGCGCCAACGUUUUCAACUAUGACACGCAAAACGCGUGCUCAGUUGAAUGGACUUUAUCAUG: at most -4.2; for GGCUCUUCUCGAUCUAACAAAAAAGACAAAUCUGCCACAAAGCUUGAGAGCAUCUUCGGAUGCAGAGGCGGCAGCCUUCGGUGGCGCCAUAGCGCCAACGUUCUCAACUAUGACACGCAAAACGCGUGCUCCGUUGAAUGGAGUUUAUCAUG: -4.14; for GGCUCUUCUUGAUCUAACAAAAAAGACAAACCUGCCACAAAGCUUGAGAGCAUCUUCGGAUGCAGAGGCGGCAGCCUUCGGUGGGGCGAUAGCGCCAACGUUCUCAACUAUGAAACGCAAAACGCGUGCUCCGUUGAAUGGAGUUUAUCAUG: at most -4.2.
As for GGCUCUUCUCGAUCUAACAAAAAAGACUAAUCUGCCACAAAGCUUGAGAGCAUCUUCGGAUGCAGAGGCGGCAGCCAUCGGUGGCGCGAUAGUGCCAACGUUCUCAACUAUGACACGCAAAACGCGUGAUCCGUUGAAUGGAGUUUAGCAUG, the “polymerase ribozyme fitness (log ratio)” value is at most -4.2.
The same measure for GGCUCUUCUCGAUCUAACAAAAAAGACAAAUCUGCCACAAAGCUUGAGAGCAUCUUCGGAUGCAGAGGCGGCAGCCUUCGGUGGAGCGAUAGCGCCAAGGUUCUCAACUAUGACACGCAAAACGCGUGCUCCGUUGAAUGGGGUUUAUCAUG: at most -4.2; for GGCUCUUCUCUAUCUAACAAAAAAGACAAAUCUGCCAGAAACCUUGAGAGCAUCUUCGGAUGCAGAGGCGGCAGCCUUCGGUGGCACGAUAGCGCCAAAGUUCUCAACUAUGACACGCAAAACGCGUGCUCCGUUGAAUGGAGUUUAUCAUG: at most -4.2; for GGCUCUUCUCGAUCUAACAAAAAAGACAAAUCUGCCACGAAGCUUGAGAGCAUCUUCGGAUGCAGAGGCGGCAGCCUUCGGUGGGGCGAUAGCGCCAACGGUCUCAACUAUGACAGGCAAAACGCGUGCUCCGUUGAAUGGAGUGUAUCAUG: at most -4.2.
Regarding GGCUCUUCUCGAUCUAACAAAAAAGACAAAUCUGCCCCAAAGCUUGAGAACAUCUUCGGAUGCAGGGGCGGCAGCCUUCGGUGGCGCGAUAGCGGCAACGUUCUCAACUAUGACACGCAAAACGCGAGCUCCGUUGAAUGGAGUUUAUCAUG, the “polymerase ribozyme fitness (log ratio)” value was at most -4.2.
As for GGCUCUUCUCGAUCUAACAAAAAAGACAAAUCUGCCAAAAAGCUUGAGAGCAUCUUCGGAUGCAGAGGCGUCAGCCUUCGGUGGCGCGAUAGCUCCAACGGUCUCAACUAUGACACGCAAAACGCCUGCUCCGUUGAAUGGAGUUUAUCAUG, the “polymerase ribozyme fitness (log ratio)” value was at most -4.2.
The result for GGCUCUUCUCGAUCUAACAAAAAAGACAAAUCUGCAACAAAGCUUGAGAGCAUCUUCGGAUGCAGAGGCGGCAGCCUUCGGAGGCGCGAUAGCGCCAACGUUCUUAACUAUGACACGCAAAACGCGUGCUCCGUUGAAUGGAGUUUAUCAUG reads at most -4.2; that for GGCUCUUCUCGAUCUCACAAAAAAGACAAAUCUGCCACAAAGCUUGAAAGCAUCUUCGGAUGCAGAGGCGGCAGCCUUCGGUGGCGCGAUAGCGCGAACGUUCUCAACUAUGACACGCAAAACGCGUGCUCCGUUGAAUGGAGUUUAUCAUG, -3.42; that for GGCUCUUCUCGAUCUAACAAAAAAGACAAAUCUGCCACAAAGCUUCACAGCAUCUUCGGAUGCGGAGGCGGCAGCCUUCGGUGGCGCGAUAGCGCCAACUUUCUCAGCUAUGACACGCAAAACGCGUGCUCCGUUGAAUGGAGUUUAUCAUG, at most -4.2.
The result for GGCUCUUCUCGAUCUAACAAAAAAGACAAAUCUGCCACAAAGCUUGAGAGCCUCUUCGGAUGCAGAGACGGCAGCCUUCGUUGGCGCGAUAACGCCAACGUUCUCAACUAUGACACGCAAAACGAGUGCUCCGUUUAAUUGAGUUUAUCAAG reads at most -4.2.

These data come from the RNAGym collection of RNA variant scans (doi:10.1073/pnas.2313332121).
